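Dose response: 5 concentrations. Exposure: 48 h. Format: 96-well plates. Endpoint: linear interpolation; highest concentration if not reached. GI50: concentration for 50% inhibition of growth. TGI marks complete inhibition of growth.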
Tested on: NCI-H322M lung
Assay: growth of human tumour cells (NCI), 48 h

Compound `O=S(=O)(NCCCNc1nccc(-c2[nH]c(-c3ccccc3)nc2-c2ccc(F)c(O)c2)n1)c1ccc(C(F)(F)F)cc1` has a GI50 of 3.09 µM and a TGI of 10.4 µM.
In the case of `C[C@@H](Nc1c(C#N)cnc2ccc(-c3cnc(N)nc3)cc12)c1ccccc1`, the GI50 was 1.03 µM and the TGI was 11.1 µM.

From PubChem BioAssay (NCI)
